Laboratory results from the antibiotic and cytotoxicity screens of Wong et al. (2023).
Some of the results follow.

Legend:
HSkMC = human skeletal muscle cells; assay: cytotoxicity call (relative viability < 0.9); settings: 10 µM
HepG2 = assay: cytotoxicity call (relative viability < 0.9); settings: 10 µM
S. aureus RN4220 = assay: growth inhibition call (relative growth <= 0.2); settings: 50 µM

Row | SMILES | cytotoxicity call (HSkMC) | cytotoxicity call (HepG2) | growth inhibition call (S. aureus RN4220)
1 | C[C@@H]1CN([C@H](C)CO)C(=O)c2cc(NS(=O)(=O)c3ccc(Cl)cc3)ccc2O[C@@H](C)CCCCO[C@H]1CN(C)S(=O)(=O)c1ccc(Cl)cc1 | inactive | inactive | inactive
2 | CN1C(=O)OC(C)(C)C1=O | inactive | inactive | inactive
3 | OC[C@H]1O[C@H](n2nnc3ccccc32)[C@@H](O)[C@@H](O)[C@@H]1O | inactive | inactive | inactive
4 | CCS(=O)(=O)Nc1ccc2c(c1)C(=O)N(C)[C@@H]1CC[C@@H](CC(=O)NCc3ccc(OC)cc3)O[C@H]1CO2 | inactive | inactive | inactive
5 | CCNC(=O)[C@@H]1CCCN1C(=O)[C@H](CCCN=C(N)N)NC(=O)[C@H](CC(C)C)NC(=O)[C@@H](Cc1c[nH]c2ccccc12)NC(=O)[C@H](Cc1ccc(O)cc1)NC(=O)[C@H](CO)NC(=O)[C@H](Cc1c[nH]c2ccccc12)NC(=O)[C@H](Cc1c[nH]cn1)NC(=O)[C@@H]1CCC(=O)N1 | inactive | inactive | inactive
6 | C[C@@H]1CN([C@H](C)CO)C(=O)c2cc(NC(=O)CCC(F)(F)F)ccc2O[C@@H]1CN(C)Cc1ccc(Cl)c(Cl)c1 | inactive | inactive | inactive
7 | CN(C)C1CCN(C(=O)c2cnc(-c3noc4cc(-c5ccccc5C(F)(F)F)ccc34)s2)CC1 | inactive | active | active
8 | COc1ccc(CN(C)C[C@@H]2OCCCC[C@@H](C)Oc3ccc(NC(=O)Nc4ccccc4)cc3C(=O)N([C@H](C)CO)C[C@@H]2C)cc1 | inactive | inactive | inactive
9 | CCN(CC)CC(=O)Nc1c(C)cccc1C.Cl | inactive | inactive | inactive
10 | CN(C)CCNc1ccc(CN)cc1 | inactive | inactive | inactive
11 | COCC(=O)N1C[C@@H](C)[C@H](OC)CN(C)C(=O)c2cc(NC(=O)c3ccc(OC)cc3)ccc2OC[C@@H]1C | inactive | inactive | inactive
12 | Cc1ccc2nc(CN)[nH]c2c1 | inactive | inactive | inactive
13 | C[C@@H]1CCCCO[C@@H](CN(C)C(=O)c2ccccc2)[C@@H](C)CN([C@@H](C)CO)C(=O)c2cc(NC(=O)C3CCCCC3)ccc2O1 | inactive | inactive | inactive
14 | C[C@H]1CCCCO[C@@H](CN(C)C(=O)C2CCCCC2)[C@@H](C)CN([C@@H](C)CO)C(=O)c2cc(NC(=O)c3ccncc3)ccc2O1 | inactive | inactive | inactive
15 | CO[C@H]1CN(C)C(=O)c2ccc(NS(=O)(=O)c3cn(C)cn3)cc2OC[C@H](C)N(CC2CC2)C[C@@H]1C | inactive | inactive | inactive
16 | O=C(O)/C=C/C(=O)NN1C(=O)c2ccccc2C1=O | inactive | inactive | inactive
17 | C/C=C1\NC(=O)[C@H]2CSSCC/C=C/[C@H](CC(=O)N[C@H](C(C)C)C(=O)N2)OC(=O)[C@H](C(C)C)NC1=O | active | active | inactive
18 | O=C(NCCN1CCCC1)[C@H]1[C@H](CO)[C@H]2Cn3c(cccc3=O)[C@H]2N1C(=O)c1ccccc1 | inactive | inactive | inactive
19 | COc1ccc(CN(C)C[C@H]2OCCCC[C@@H](C)Oc3ccc(NC(=O)NC(C)C)cc3C(=O)N([C@@H](C)CO)C[C@@H]2C)cc1 | inactive | inactive | inactive
20 | C[C@H](CO)N1C[C@H](C)[C@H](CN(C)C(=O)c2cnccn2)Oc2ncc(/C=C/c3ccccc3)cc2C1=O | inactive | inactive | inactive
21 | CCc1nc2ccc(C(=O)NCCN3CCNC3=O)cn2c1N(CC)Cc1cccc(Br)c1 | inactive | inactive | inactive
22 | C[C@H]1CCCCO[C@H](CN(C)C(=O)Nc2ccc(C(F)(F)F)cc2)[C@@H](C)CN([C@@H](C)CO)C(=O)c2cc(NC(=O)C3CCCCC3)ccc2O1 | inactive | inactive | inactive
23 | C[C@H](CO)N1C[C@H](C)[C@@H](CN(C)C(=O)CN2CCOCC2)Oc2ncc(C#CCN(C)C)cc2C1=O | inactive | inactive | inactive
24 | C[C@@H]1CN([C@@H](C)CO)C(=O)c2ccccc2-c2ccccc2CO[C@H]1CN(C)S(=O)(=O)c1ccc(C(F)(F)F)cc1 | inactive | inactive | inactive
25 | C[C@@H]1CN([C@@H](C)CO)S(=O)(=O)c2ccc(C#CC3(O)CCCC3)cc2O[C@@H]1CN(C)C(=O)Cc1ccncc1 | inactive | inactive | inactive
26 | O=CNC(=O)c1ccccc1C(=O)O | inactive | inactive | inactive
27 | COc1ccc(C(=O)Nc2ccc3c(c2)C(=O)N(C)[C@H]2CC[C@@H](CC(=O)NCC4CC4)O[C@H]2CO3)cc1 | inactive | inactive | inactive
28 | Cc1noc(C)c1S(=O)(=O)Nc1ccc2c(c1)C(=O)N([C@@H](C)CO)C[C@H](C)[C@H](CN(C)Cc1ccccc1)O2 | inactive | inactive | inactive
29 | Cn1c(NCCN(CCO)CCCc2ccc([N+](=O)[O-])cc2)cc(=O)n(C)c1=O | inactive | inactive | inactive
30 | CC(C)CC[C@@H](O)[C@H]1C[C@@H](CO)OC1=O | inactive | inactive | inactive
